Experimental data from PubChem BioAssay AID1794791 (DTP/NCI, 2022).
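96-well plates, one dose, 48 hours. Percent growth reported; active if below 10.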 For part of its entries the source gives two or more results. The other results are left out here. The source may hold further records. For some assays here: This drug was run again and again over the years, at its own concentration, as given; one value stands for one run. Signs of the kind (2×) say how often a value occurs here. Some values that stand alone complete this part of the results.

System: MDA-N (NCI-60) percent
Experiment: NCI-60 one-dose screen, 48 h (100 = growth as untreated, 0 = no growth, -100 = all killed)
Conditions: 2.5 mM
Protocol: Growth inhibition of the MDA-N human tumor cell line is measured as a screen for anti-cancer activity. Cells are grown in 96 well plates and exposed to the test compound for 48 hours. Compounds are tested at a single concentration, which is 10^-5 M for most compounds. The reported endpoint is percent growth (GI% or GIPRCNT), where numbers from 0 - 100% represent growth inhibition, and numbers from -100% - 0 represent cell death. For example, a value of 40 represents 60% growth inhibition. A value of 0 means no net growth occurred over the course of the experiment. A value of -40 indicates 40% of cells at the beginning of the experiment died by the end of the experiment. A value of -100 means all cells are dead at the end of the experiment.
NCI-60 Human Tumor Cell Lines Screen was performed using the standard one-dose NCI protocol, which is described in more detail at https://dtp.cancer.gov/discovery_development/nci-60/default.htm.
Compounds with GIPRCNT values below 10 were considered active. Activity score was based on GIPRCNT using the following formula: […]
Score is 0 for GIPRCNT values of 100 or above, 50 for GIPRCNT values of 0, and 100 for GIPRCNT values of -100.

`O=c1[nH]cc(F)c(=O)[nH]1` was tested, and the growth (runs of 1993) was 25.6, 24.3 (2×), 28.4, 37.1, 40.9, 30.9, 22.1, 27.4, 21%, the growth (runs of 1994) was 30.2, 26.7, 12.6, 14.2, 25.7, 28.2, 21.1, 27.7, 38.6, 26.5 (2×), 22, 29.4 (2×), 38.2, 24.2, 32.8, 33.5, 8.96, 31.5, 30.6, 34.5, 23, 45.8, 19.4, 24.4, 27, 24.5, 29.7, 25.5, 24, 19.7, 17.9, 35.4% and the growth (runs of 1995) was 33.3, 32.9, 22.1, 17.9, 22.3, 34.1, 21.9, 23.8, 29.8, 27, 18.5, 32.3, 26.5, 27.5, -20.3, 10.3, 27.4, 28, 12.8, 36.5, 33.2, 5.28, 23.1, 29.7, 35.9, 38.7, 26.9, 15.3, 23.4, 18.4, 23.7, 24.7, 29, 33.4, 32.8, 21, 29.9, 46.8, 23.3%. The growth (runs of 1996) was 23.5, 31.1, 22.2, 21.3, 42.3, 25.5, 22.5, 14.1, 33.2, 21.2, 9.77, 36.6, 37.7, 22.3, 33.4, 21.1% and the growth (runs of 2000) was 0.386%.
